Measured values reported in paper PMC12820563, “FoxP3 forms a head-to-head dimer in vivo and stabilizes its multimerization on adjacent microsatellites”.
The list shows a part of the results.

What follows are sequences tested against T1, MBP-FoxP1dN (Mus musculus, UniProt P58462 326-579) (assay: PD-seq (MBP pull-down with sequencing); 20 mM Tris-HCl pH 7.5, 100 mM NaCl, 1.5 mM MgCl2, 0.4 uM protein, 0.1 uM dsDNA library, 30 min, room temperature, amylose pull-down; high values mean tight binding). Conditions: protein: recombinant; tags: His6-MBP; chain copies: 2; dsDNA, one strand shown.
T1 sequence: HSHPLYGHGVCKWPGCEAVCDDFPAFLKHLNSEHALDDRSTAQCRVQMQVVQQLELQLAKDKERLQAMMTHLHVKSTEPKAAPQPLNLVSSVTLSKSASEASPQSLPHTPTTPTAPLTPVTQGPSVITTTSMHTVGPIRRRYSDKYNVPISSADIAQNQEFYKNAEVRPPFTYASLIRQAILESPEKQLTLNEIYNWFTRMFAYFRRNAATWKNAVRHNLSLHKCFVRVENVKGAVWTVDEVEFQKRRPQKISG
In short: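 Binding is the reads-per-million enrichment of pull-down relative to input, pooled across replicates. For this, 0.4 µM His6-MBP-tagged mouse FoxP3 or FoxP1 fragment lacking the N-terminus, made in E. coli, was incubated with 0.1 µM Klenow-filled double-stranded degenerate DNA library for 30 min at room temperature in Tris pH 7.5 buffer with NaCl and MgCl2. Complexes bound to amylose resin were washed three times before proteinase K released the DNA for PCR barcoding and Illumina sequencing.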

Sequence | binding signal
GATGATTGTTCTCCCAGCTGATGAATTAACAACATCGAGTAAACAAATTTTCCTAATCTTTCTGTTCAAGCGCCATCTAC | 2.17 RPM ratio (pull-down/input)
GATGATTGTTCTCCCAGCTGATGAATTGGCAAGTTCGAGTAAACAAATTTTCCTAATCTTTCTGTTCAAGCGCCATCTAC | 0.817 RPM ratio (pull-down/input)
GATGATTGTTCTCCCAGCTGATGAATTCGATAACTCGAGTAAACAAATTTTCCTAATCTTTCTGTTCAAGCGCCATCTAC | 0.893 RPM ratio (pull-down/input)
GATGATTGTTCTCCCAGCTGATGAATTTCCCCAGTCGAGTAAACAAATTTTCCTAATCTTTCTGTTCAAGCGCCATCTAC | 0.767 RPM ratio (pull-down/input)
GATGATTGTTCTCCCAGCTGATGAATTCGCATCTTCGAGTAAACAAATTTTCCTAATCTTTCTGTTCAAGCGCCATCTAC | 1.42 RPM ratio (pull-down/input)
GATGATTGTTCTCCCAGCTGATGAATTGTCCCGGTCGAGTAAACAAATTTTCCTAATCTTTCTGTTCAAGCGCCATCTAC | 0.848 RPM ratio (pull-down/input)
GATGATTGTTCTCCCAGCTGATGAATTAACAGTTTCGAGTAAACAAATTTTCCTAATCTTTCTGTTCAAGCGCCATCTAC | 1.09 RPM ratio (pull-down/input)
GATGATTGTTCTCCCAGCTGATGAATTCTAGTAGTCGAGTAAACAAATTTTCCTAATCTTTCTGTTCAAGCGCCATCTAC | 0.92 RPM ratio (pull-down/input)
GATGATTGTTCTCCCAGCTGATGAATTAGCTACCTCGAGTAAACAAATTTTCCTAATCTTTCTGTTCAAGCGCCATCTAC | 0.807 RPM ratio (pull-down/input)
GATGATTGTTCTCCCAGCTGATGAATTTTCCTCCTCGAGTAAACAAATTTTCCTAATCTTTCTGTTCAAGCGCCATCTAC | 0.932 RPM ratio (pull-down/input)
GATGATTGTTCTCCCAGCTGATGAATTTTAACCCTCGAGTAAACAAATTTTCCTAATCTTTCTGTTCAAGCGCCATCTAC | 0.796 RPM ratio (pull-down/input)
GATGATTGTTCTCCCAGCTGATGAATTCATTCGGTCGAGTAAACAAATTTTCCTAATCTTTCTGTTCAAGCGCCATCTAC | 0.807 RPM ratio (pull-down/input)
GATGATTGTTCTCCCAGCTGATGAATTGCCTTTTTCGAGTAAACAAATTTTCCTAATCTTTCTGTTCAAGCGCCATCTAC | 1.1 RPM ratio (pull-down/input)
GATGATTGTTCTCCCAGCTGATGAATTCTGTTCCTCGAGTAAACAAATTTTCCTAATCTTTCTGTTCAAGCGCCATCTAC | 0.854 RPM ratio (pull-down/input)
GATGATTGTTCTCCCAGCTGATGAATTTCCTGATTCGAGTAAACAAATTTTCCTAATCTTTCTGTTCAAGCGCCATCTAC | 0.867 RPM ratio (pull-down/input)
GATGATTGTTCTCCCAGCTGATGAATTTAGCCCATCGAGTAAACAAATTTTCCTAATCTTTCTGTTCAAGCGCCATCTAC | 0.873 RPM ratio (pull-down/input)

Sequence | binding signal
GATGATTGTTCTCCCAGCTGATGAATTCGTGGTTTCGAGTAAACAAATTTTCCTAATCTTTCTGTTCAAGCGCCATCTAC | 0.879 RPM ratio (pull-down/input)
GATGATTGTTCTCCCAGCTGATGAATTTAGCCCTTCGAGTAAACAAATTTTCCTAATCTTTCTGTTCAAGCGCCATCTAC | 0.876 RPM ratio (pull-down/input)
GATGATTGTTCTCCCAGCTGATGAATTCGGAATCTCGAGTAAACAAATTTTCCTAATCTTTCTGTTCAAGCGCCATCTAC | 0.853 RPM ratio (pull-down/input)
GATGATTGTTCTCCCAGCTGATGAATTCGCATCGTCGAGTAAACAAATTTTCCTAATCTTTCTGTTCAAGCGCCATCTAC | 0.98 RPM ratio (pull-down/input)
GATGATTGTTCTCCCAGCTGATGAATTAGACGTGTCGAGTAAACAAATTTTCCTAATCTTTCTGTTCAAGCGCCATCTAC | 0.944 RPM ratio (pull-down/input)
GATGATTGTTCTCCCAGCTGATGAATTTGGTGCATCGAGTAAACAAATTTTCCTAATCTTTCTGTTCAAGCGCCATCTAC | 1.3 RPM ratio (pull-down/input)
GATGATTGTTCTCCCAGCTGATGAATTTAGATTATCGAGTAAACAAATTTTCCTAATCTTTCTGTTCAAGCGCCATCTAC | 1.26 RPM ratio (pull-down/input)
GATGATTGTTCTCCCAGCTGATGAATTCAACGAGTCGAGTAAACAAATTTTCCTAATCTTTCTGTTCAAGCGCCATCTAC | 0.741 RPM ratio (pull-down/input)
GATGATTGTTCTCCCAGCTGATGAATTCACACCCTCGAGTAAACAAATTTTCCTAATCTTTCTGTTCAAGCGCCATCTAC | 0.863 RPM ratio (pull-down/input)
GATGATTGTTCTCCCAGCTGATGAATTTTACCTATCGAGTAAACAAATTTTCCTAATCTTTCTGTTCAAGCGCCATCTAC | 0.846 RPM ratio (pull-down/input)
GATGATTGTTCTCCCAGCTGATGAATTCCTGATGTCGAGTAAACAAATTTTCCTAATCTTTCTGTTCAAGCGCCATCTAC | 1.08 RPM ratio (pull-down/input)
GATGATTGTTCTCCCAGCTGATGAATTAGGGAAATCGAGTAAACAAATTTTCCTAATCTTTCTGTTCAAGCGCCATCTAC | 1.02 RPM ratio (pull-down/input)
GATGATTGTTCTCCCAGCTGATGAATTTTGGACTTCGAGTAAACAAATTTTCCTAATCTTTCTGTTCAAGCGCCATCTAC | 0.908 RPM ratio (pull-down/input)
GATGATTGTTCTCCCAGCTGATGAATTCCTCTGCTCGAGTAAACAAATTTTCCTAATCTTTCTGTTCAAGCGCCATCTAC | 0.749 RPM ratio (pull-down/input)
GATGATTGTTCTCCCAGCTGATGAATTTGATAATTCGAGTAAACAAATTTTCCTAATCTTTCTGTTCAAGCGCCATCTAC | 1.02 RPM ratio (pull-down/input)
GATGATTGTTCTCCCAGCTGATGAATTGTCACCCTCGAGTAAACAAATTTTCCTAATCTTTCTGTTCAAGCGCCATCTAC | 1 RPM ratio (pull-down/input)
